From the RNAGym collection of RNA variant scans (doi:10.7554/elife.90254)
The source gives no read counts; variants with many changes may rest on few reads.

B1: LINE1-mini (parent)
chain: GGCAGAGCUCAACACAGCGUGGCAAAGUGGCUGUGGCUAGACUGCC

Variants of: B1
Experiment: self-cleavage, relative activity (ratio to wild type); higher = more cleavage; in vitro, sequencing; the parent is a self-cleaving ribozyme

Question: With G1U G21A G33U G35A G36A G40A C42U as the variant, how does the self-cleavage read?
Answer: The self-cleavage was 0.03.

Question: For A11C G21A A26U C46A, which self-cleavage is on record?
Answer: Its self-cleavage is 0.

Question: For C10A A11U C45U, which self-cleavage is on record?
Answer: Its self-cleavage is 0.08.

Question: Which self-cleavage does the source give for G2C G5A C23A here?
Answer: Its self-cleavage is 0.05.

Question: With A11G G17U A41G as the variant, how does the self-cleavage read?
Answer: The self-cleavage was 0.01.

Question: Which self-cleavage does the source give for G17U C37A A39C C45A here?
Answer: Its self-cleavage is 0.06.

Question: For C3U A11G C15G, which self-cleavage is on record?
Answer: Its self-cleavage is 0.02.

Question: For A4C A6G A26U C31A U43G C46G, which self-cleavage is on record?
Answer: The self-cleavage was 0.01.

Question: Which self-cleavage does the source give for G7U G22U G36U here?
Answer: Its self-cleavage is 0.07.

Question: For G1A G5U G22U G29A, which self-cleavage is on record?
Answer: The self-cleavage was 0.14.

Question: With G5U A11C G36C as the variant, how does the self-cleavage read?
Answer: The self-cleavage was 0.02.

Question: With G5C C18U C23U A41U C46G as the variant, how does the self-cleavage read?
Answer: The self-cleavage was 0.04.

Question: Which self-cleavage does the source give for A12G G22U G40U A41C here?
Answer: The self-cleavage was 0.02.

Question: For C13U G36A C46A, which self-cleavage is on record?
Answer: Its self-cleavage is 0.

Question: With G5C U28A G44U C46U as the variant, how does the self-cleavage read?
Answer: Its self-cleavage is 0.01.

Question: Which self-cleavage does the source give for C15G G36C G44U here?
Answer: The self-cleavage was 0.02.

Question: For C8U C15G G22C C37G U38C, which self-cleavage is on record?
Answer: Its self-cleavage is 0.03.

Question: With A24U G35A C45U as the variant, how does the self-cleavage read?
Answer: The self-cleavage was 0.06.

Question: Which self-cleavage does the source give for C3G A24C G35U C45U here?
Answer: Its self-cleavage is 0.03.

Question: For G2A A11U A12G C15U A25C C45G, which self-cleavage is on record?
Answer: Its self-cleavage is 0.03.

Question: Which self-cleavage does the source give for U9G C10A G19C here?
Answer: Its self-cleavage is 0.01.

Question: Which self-cleavage does the source give for C8U U9C U38C here?
Answer: Its self-cleavage is 0.06.

Question: With A6G C8U C15A G17A as the variant, how does the self-cleavage read?
Answer: Its self-cleavage is 0.02.

Question: Which self-cleavage does the source give for G27C U28C C46A here?
Answer: The self-cleavage was 0.51.

Question: For G2U C3A A25U, which self-cleavage is on record?
Answer: Its self-cleavage is 0.08.

Question: For G5C A24U G27A G36U, which self-cleavage is on record?
Answer: Its self-cleavage is 0.04.

Question: With G1U U9A G17C U34C G40U A41U as the variant, how does the self-cleavage read?
Answer: Its self-cleavage is 0.01.

Question: With U34A G35A G44A as the variant, how does the self-cleavage read?
Answer: The self-cleavage was 0.01.

Question: With A4U G19U C45U as the variant, how does the self-cleavage read?
Answer: The self-cleavage was 0.04.

Question: Which self-cleavage does the source give for G7U G33A C37U C45U here?
Answer: The self-cleavage was 0.04.

Question: With G1C A6U A16G U38A as the variant, how does the self-cleavage read?
Answer: The self-cleavage was 0.02.

Question: For U9C G22C C23A C31A U32A C42G, which self-cleavage is on record?
Answer: Its self-cleavage is 0.01.

Question: For G1C U28C G40C U43A, which self-cleavage is on record?
Answer: The self-cleavage was 0.

Question: For A4C G7U A11G C37A, which self-cleavage is on record?
Answer: The self-cleavage was 0.11.

Question: Which self-cleavage does the source give for C10A A24C A41U G44A here?
Answer: Its self-cleavage is 0.01.

Question: For C3U A41U C45U, which self-cleavage is on record?
Answer: The self-cleavage was 0.18.

Question: For G5U A26U G30C G35C C45U, which self-cleavage is on record?
Answer: Its self-cleavage is 0.02.

Question: With G1C C10A G22U as the variant, how does the self-cleavage read?
Answer: Its self-cleavage is 0.

Question: Which self-cleavage does the source give for C18G A26G U43A here?
Answer: The self-cleavage was 0.06.

Question: For C13G A24C U32C G33U G44U, which self-cleavage is on record?
Answer: Its self-cleavage is 0.07.

Question: With C18A U28A G29U C45A as the variant, how does the self-cleavage read?
Answer: Its self-cleavage is 0.29.

Question: With C3A C10A A16U C18G as the variant, how does the self-cleavage read?
Answer: The self-cleavage was 0.04.

Question: Which self-cleavage does the source give for C10G C15A U20C A39G here?
Answer: The self-cleavage was 0.01.

Question: With A4U C13U U38C as the variant, how does the self-cleavage read?
Answer: The self-cleavage was 0.21.

Question: Which self-cleavage does the source give for C3U U28G U32A G35C here?
Answer: The self-cleavage was 0.12.

Question: Which self-cleavage does the source give for C8G A24U U38C here?
Answer: Its self-cleavage is 0.04.

Question: Which self-cleavage does the source give for G1C A4C C8G A12C G21U here?
Answer: The self-cleavage was 0.01.

Question: For C8U U9C A14C G44U, which self-cleavage is on record?
Answer: The self-cleavage was 0.19.

Question: With C3U A14C C37G as the variant, how does the self-cleavage read?
Answer: Its self-cleavage is 0.07.

Question: Which self-cleavage does the source give for C18U G22U A26C U43G here?
Answer: Its self-cleavage is 0.29.

Question: With A6U G22U G30A G33C A41U C45A C46A as the variant, how does the self-cleavage read?
Answer: The self-cleavage was 0.05.

Question: Which self-cleavage does the source give for G17U A24G A26U here?
Answer: Its self-cleavage is 0.01.

Question: For C10A C15A G29C A41C, which self-cleavage is on record?
Answer: The self-cleavage was 0.

Question: With A11U C15G A16U as the variant, how does the self-cleavage read?
Answer: Its self-cleavage is 0.02.

Question: For G5U U20A C23A, which self-cleavage is on record?
Answer: Its self-cleavage is 0.02.

Question: Which self-cleavage does the source give for G7U C8G A12U here?
Answer: Its self-cleavage is 0.04.

Question: Which self-cleavage does the source give for C8U G35C C37G here?
Answer: Its self-cleavage is 0.13.

Question: Which self-cleavage does the source give for U9A A39U G44A here?
Answer: Its self-cleavage is 0.11.

Question: For A4G G22A G40U, which self-cleavage is on record?
Answer: Its self-cleavage is 0.04.

Question: Which self-cleavage does the source give for G5A C31G U34C C42A here?
Answer: The self-cleavage was 0.03.

Question: For C8G C10A U20G C23G A41G, which self-cleavage is on record?
Answer: Its self-cleavage is 0.

Question: Which self-cleavage does the source give for A14U G36A C45U here?
Answer: Its self-cleavage is 0.08.

Question: For C13A U32G G33C C37G, which self-cleavage is on record?
Answer: The self-cleavage was 0.01.

Question: With G5A G27C G36U as the variant, how does the self-cleavage read?
Answer: The self-cleavage was 0.65.

Question: Which self-cleavage does the source give for G21U G27C C31A here?
Answer: The self-cleavage was 0.13.

Question: For G2A G36A U38C, which self-cleavage is on record?
Answer: Its self-cleavage is 0.09.

Question: For G1A G27A U32C G44C, which self-cleavage is on record?
Answer: Its self-cleavage is 0.03.

Question: With G36A A39C C45G as the variant, how does the self-cleavage read?
Answer: The self-cleavage was 0.1.

Question: For G5A C10U G19C U43A, which self-cleavage is on record?
Answer: Its self-cleavage is 0.02.

Question: For G17U G30A U38G, which self-cleavage is on record?
Answer: The self-cleavage was 0.01.

Question: Which self-cleavage does the source give for A12G C18A U28G U34A here?
Answer: The self-cleavage was 0.04.

Question: Which self-cleavage does the source give for G2U C10U A12C here?
Answer: The self-cleavage was 0.01.

Question: For G2U C13A G17U U20G G21A G44A, which self-cleavage is on record?
Answer: The self-cleavage was 0.02.

Question: Which self-cleavage does the source give for A14G A26U U28A G33C G40A here?
Answer: Its self-cleavage is 0.01.

Question: For C13A G17C G27A U34A, which self-cleavage is on record?
Answer: Its self-cleavage is 0.01.

Question: For G5U A6G G19U A24U G35U, which self-cleavage is on record?
Answer: The self-cleavage was 0.04.

Question: With C8A C23U U32C as the variant, how does the self-cleavage read?
Answer: The self-cleavage was 0.33.

Question: With C8A C10G C15A C37U A41G as the variant, how does the self-cleavage read?
Answer: The self-cleavage was 0.01.

Question: For G1U U28G C46U, which self-cleavage is on record?
Answer: Its self-cleavage is 0.29.

Question: For C10A A16U C23U, which self-cleavage is on record?
Answer: Its self-cleavage is 0.05.

Question: Which self-cleavage does the source give for C18G G29A G35A here?
Answer: The self-cleavage was 0.11.

Question: Which self-cleavage does the source give for A16U G17U A24G A41C here?
Answer: Its self-cleavage is 0.01.

Question: For G2U G17U A41C, which self-cleavage is on record?
Answer: Its self-cleavage is 0.06.

Question: With A6G G17A U20A G40C as the variant, how does the self-cleavage read?
Answer: Its self-cleavage is 0.03.
